Results: PubChem BioAssay AID493208 (National Center for Advancing Translational Sciences (NCATS), 2011)
Out of some 44,000 compounds screened, about 340 (0.77%) were called active. Inconclusive results (about 5%) are left out. Calls come from the whole dose curve; as a rule, active = well fitted inhibition curve with a large enough effect; inconclusive = small, poorly fitted or top-dose-only effect; inactive = flat fitted curve, though single readings scatter. This is one part of the list.

assay: Acumen qHTS Assay for Inhibitors of the mTORC1 Signaling Pathway in MEF (Tsc2-/-, p53-/-) Cells: Sytravon; details: phospho-rpS6 immunofluorescence/PI, 24 h; series mostly up to 38.3 µM; activity change, negative = inhibition: at the top concentration; note: nearly all actives have a fitted effect of over 50% in size;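 for activity change, negative = inhibition: plate controls were DMSO for no effect and rapamycin for full effect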
Method in brief: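 Tsc2-/-, p53-/- mouse embryonic fibroblasts (empty-vector line) exposed to compound 24 hrs at 37 C, fixed, immunostained for phospho-rpS6 and counterstained with propidium iodide. Acumen laser scanning gives % positive cells from Alexa 488/PI ratio, thresholded using 7.5 nM rapamycin; PI count gives viability.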
Potency is the fitted concentration of half-maximal effect.

Row | SMILES | activity change, negative = inhibition | Potency
1 | COc1ccc2c(c1)c(CC(=O)Nc1c(C)cccc1C)c(C)n2C(=O)c1ccc(Cl)cc1 | inactive: -4.62% | 
2 | CSc1ccc(CCNC(=O)c2ccc(-n3c(C)cc4c3CCC(C)C4)cc2)cc1 (stereo not drawn) | inactive: -1.5% | 
3 | CCOc1ccccc1NC(=O)Cn1c(=O)n(-c2ccc(C)cc2)c(=O)c2c1cnn2C | inactive: -13.5% | 
4 | Cc1cc(C)cc(NC(=O)CCn2cnc3ccccc3c2=O)c1 | inactive: -16.9% | 
5 | CCc1cccc(NC(=O)CC(c2ccc(OC)cc2)N2Cc3ccccc3C2=O)c1 (stereo not drawn) | inactive: -19.5% | 
6 | CC(C)c1ccc(C2NC(=O)c3c(sc4c3CCN(C)C4)N2)cc1 (stereo not drawn) | inactive: 0.657% | 
7 | Cc1ccc(-n2nnnc2SCC(=O)NCCc2ccccc2)cc1C | inactive: -2.73% | 
8 | COc1ccc(NC(=O)c2ccc(NC(=O)CCS(=O)(=O)c3cccs3)cc2)cc1Cl | inactive: 0.283% | 
9 | CCOc1ccc(N(CC(=O)OC)S(=O)(=O)c2ccc3c(c2)n(C)c(=O)c(=O)n3C)cc1 | inactive: -0.818% | 
10 | CCC(C)NC(=O)Cn1c(=O)n(-c2ccc(Cl)cc2)c(=O)c2c3c(sc21)CCCC3 (stereo not drawn) | inactive: 7.38% | 
11 | Cc1ccc(C)c(N2CCN(C(=O)c3c(C)oc4nc(C)nc(N5CCOCC5)c34)CC2)c1 | inactive: 5.94% | 
12 | CCCc1nnc(SCc2cc(=O)c3c(C)cc(C)cc3[nH]2)n1C | inactive: 2.33% | 
13 | CCc1nnc(NC(=O)CSc2nccn2Cc2ccc(Cl)cc2)s1 | inactive: -0.654% | 
14 | Cc1ccc(OCCCn2c(-c3ccc(Cl)cc3)nc3ccccc3c2=O)cc1C | inactive: 1.86% | 
15 | O=C(Nc1ccc(F)cc1F)C1CCN(C(=O)c2cnn(-c3ccccc3)c2-n2cccc2)CC1 | inactive: 0.568% | 
16 | O=C(NCC(c1ccc2c(c1)OCO2)N1CCN(c2ccccc2)CC1)c1ccc(F)c(F)c1 (stereo not drawn) | inactive: 0% | 
17 | C=CCC(CC=C)(CNC(=O)C(=O)Nc1ccc(Br)cc1)c1ccc(OC)c(OC)c1 | inactive: 1.49% | 
18 | O=C(NCc1cccc(Cl)c1)c1cnc(N2CCOCC2)c2ccccc12 | inactive: -12.1% | 
19 | CCOc1ccc(NS(=O)(=O)c2c(C)nc3sc(CC)nn3c2=O)cc1 | inactive: 3.34% | 
20 | COCCNC(=O)c1ccc2c(c1)ncn2-c1cc(C)ccc1OC | inactive: -1.54% | 
21 | CCc1ccc(CNC(=O)Cn2nc(C)c3nn(-c4ccc(Cl)cc4)c(C)c3c2=O)cc1 | inactive: -5% | 
22 | Cn1cccc1-c1cc2n(n1)CCC(=O)N2CCCC(=O)NCc1cccc(Cl)c1 | inactive: 2.01% | 
23 | Cc1ccc(C(=O)Nc2cc(-c3cn4cccnc4n3)ccc2C)cc1C | inactive: 2.62% | 
24 | Cc1nnc(NC(=O)CSc2nccn2Cc2ccccc2)s1 | inactive: -15% | 

Row | SMILES | activity change, negative = inhibition | Potency
25 | CSCCC(NS(=O)(=O)c1ccc2c(c1)oc(=O)n2C)C(=O)NCc1ccc(Cl)cc1 (stereo not drawn) | inactive: 0.312% | 
26 | Cc1ccc(C)c(NC(=O)c2nc(S(=O)(=O)Cc3ccc(F)cc3)ncc2Cl)c1 |  | active: 2.07 µM
27 | CCc1ccccc1S(=O)(=O)Cc1ccc(C(=O)NCCc2ccc(Cl)cc2)o1 | inactive: -4.36% | 
28 | O=C(Nc1cc(-c2cccc(Cl)c2)nn1-c1ccccc1)c1ccccc1F | inactive: 2.9% | 
29 | CCS(=O)(=O)c1ncc(N(Cc2ccccc2)Cc2ccco2)c(C(=O)Nc2ccccc2C)n1 | inactive: 0.606% | 
30 | O=C(Cc1ccc(Cl)cc1)NCCc1csc2nc(-c3ccccc3F)nn12 | inactive: -2.75% | 
31 | Cc1cc(F)ccc1Nc1nc2ccc(Cl)cc2n2cnnc12 | inactive: 0.766% | 
32 | CCC(C)(C)NC(=O)C(NS(=O)(=O)c1cccs1)c1ccccc1 (stereo not drawn) | inactive: -12% | 
33 | CCOC(=O)c1ccc(-n2c(CCC(=O)O)ccc2-c2ccccc2)cc1O | inactive: 0.241% | 
34 | CC(CC(=O)Nc1ccc(F)cc1)S(=O)(=O)c1cc2c3c(c1)CCN3C(=O)CC2 (stereo not drawn) | inactive: 0% | 
35 | COc1ccc(N2CCN(C(=O)C(CC(C)C)NS(=O)(=O)c3ccc4nc(C)sc4c3)CC2)cc1 (stereo not drawn) | inactive: 0.176% | 
36 | CNc1ccc(-c2nc(-c3ccncc3)no2)cc1[N+](=O)[O-] | inactive: -5.18% | 
37 | COC(=O)c1ccccc1NC(=O)CSc1nc2ccccc2nc1Cc1ccc(F)cc1 | inactive: 1.64% | 
38 | O=C(NC1CCCCC1)c1ccc2c(c1)N(Cc1cccc(Cl)c1)C(=O)c1ccccc1S2(=O)=O | inactive: -1.34% | 
39 | Cc1ccc(CNc2cc(C)nc3nc(-c4ccc(C)cc4)nn23)cc1 | inactive: -2.48% | 
40 | COc1ccc(CNC(=O)CCc2c(C)nc3cc(-c4ccc(OC)cc4OC)nn3c2C)cc1 | inactive: 0.985% | 
41 | Cc1cccc(NC(=O)Cn2c(=O)n(CC3CCC(C(=O)NCCc4ccccc4)CC3)c(=O)c3ccccc32)c1 (stereo not drawn) | inactive: 0.0571% | 
42 | Fc1ccc(Nc2nc(-c3cccc(Cl)c3)c3c(n2)-c2ccccc2OC3)c(F)c1 | inactive: -0.848% | 
43 | Fc1ccc(-c2cc(-c3ccc(F)cc3)c3c(n2)-c2cc(F)ccc2OC3)cc1 | inactive: 6.6% | 
44 | CCOc1ccc2nc(N3CCCC(C(=O)Nc4ccccc4CC)C3)sc2c1 (stereo not drawn) | inactive: -0.71% | 
45 | CCc1ccc(NC(=O)CSc2nc(-c3ccc(C)cc3)nc3c2Cc2c(CO)cnc(C)c2O3)cc1 | inactive: -3.24% | 
46 | CCOC(=O)c1cc(-c2ccc(F)cc2)n(CCC(=O)NC2CCC(C)CC2)c1C (stereo not drawn) | inactive: -0.185% | 
47 | CCc1ccc(-c2nc3cc(NC(=O)c4ccc(C)c(C)c4)ccc3o2)cc1 | inactive: -5.88% | 
48 | Cc1c(NC(=O)c2cccs2)cccc1-c1nc2cc(Cl)ccc2o1 | inactive: -3.31% | 
